Reference: the supplement of paper PMC10126150
Values marked as one replicate rest on one cluster of the flow cell; about a third of the high ones do not repeat.

Test system: ATP
Assay: switch fluorescence ratio, 500 uM ATP over buffer (Cy3 cluster intensity, sum of 5 cycles each) (fold (ratio)); higher = stronger signal-on switching upon ATP binding; sequences stand for … in TCGTCGGCAGCGTCAGATGTGTATAAGAGACAGTTTTTTTTTTTTTTTTTTTTTTTTT…TC
Conditions: aptamer strand: ATP DNA aptamer (quencher-CACCTGGGGGAGTATTGCGGAGGAAGG + anchor), 100 nM annealed; ATP concentration: 500 uM; one replicate
How it was run: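 Clusters with intensities outside 100-1000 RFU were excluded. The remaining Cy3-labelled switching-strand clusters on a modified Illumina MiSeq flow-cell had been annealed to 100 nM quencher-labelled ATP aptamer and imaged in selection buffer, then after 15 min with 500 uM ATP at 22 °C, for five cycles separated by NaOH stripping and re-annealing. The fluorescence ratio, averaged per switch-domain sequence, is each cluster's summed target-cycle Cy3 intensity over its summed buffer-cycle Cy3 intensity.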
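Further: ATP exposure 15 min at 22 °C before imaging.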

Sequence | switch fluorescence ratio
AACATCCGAT | 1.06
ACCTGCTAAT | 1.06
TTGCACCGTC | 1.07
GGAAGAGGCG | 0.932
TGCCACCGAG | 1.08
AGTAACTACC | 1.09
TGTTAACACG | 0.944
CCTATCTCTG | 1.07
GTGGAAAACT | 1.01
AAGTGTCTGT | 1.03
TTCACTCGTT | 1.05
TCTAACGATA | 1.03
CTTTTAGGCA | 1
AATTAGCAGT | 1.04
ACTGGCGCTT | 1.03
TCAAGAATAT | 1.03
TACGCAATTT | 4.2
TAACGGCGTT | 1.03
TCGGAGTATG | 1.07
TGTAATACCA | 1.06
CTTTGCAGCA | 1.22
AACTTAGCGC | 0.965
GTAACCGAAA | 1.06

Sequence | switch fluorescence ratio
AGTCGGTTTA | 1.01
ATGAAGGATT | 1.02
CATACCATCC | 1.65
CATCGTTATA | 1.01
TTCAAGTAAA | 1.03
CCGCTTGGAG | 1.2
ACTTTTTGAA | 1
TACAGGTCTG | 0.951
CATGCCATGG | 1.01
CGGGAGGATC | 1.04
AATAAGCGGA | 1.02
ACCCGTGTAT | 1.03
GCCGTGTGAC | 0.949
GATAGTCTAG | 0.98
TGGGGACCAG | 0.988
GCCATAGTGT | 0.979
TTTATCATGA | 0.967
GCACAGTGGC | 0.949
ACTTTTTAGA | 1.04
TCAATCACAC | 1.04
TCTTGCAGAC | 2.3
AGAGACTATG | 0.949
AAGCTAGGAC | 1.16

Sequence | switch fluorescence ratio
GCGGAAGGTA | 0.964
ACGGTCTCAC | 1.09
TAATGTCGTT | 0.955
TTTGTTGGAG | 0.981
AAGAATGGAC | 1.02
CCTCGGTTGT | 1.21
AGGACCTTCC | 3.47
GGGATGTAA | 1.02
TCCTCCGGCT | 1.01
GACCTAGGT | 0.867
GCCCGAAGAC | 2.69
GACGAATCCC | 1.1
TATTAGAGGG | 1.01
GGATCGAATT | 0.994
CAGGACTT | 1.01
TATAGCGGCC | 1.02
CGGCGGGACT | 1.05
GGCACATTGC | 1.04
GTGGATCTGC | 1.01
ATGATTAACG | 1.01
GCTCAACGCC | 1.05
TTCGCCCAAT | 2.06
TAGGTCCCTC | 0.979

Sequence | switch fluorescence ratio
CGTCCTTGAC | 1
GAACCACTGT | 1.01
CTTACCCCAT | 1.1
GCTACAGCT | 1.01
TCGGCGTTCG | 1
AGATAAGTGT | 0.944
ATAAAATGAC | 1.07
AGGGGCCTT | 1.05
CAACTACCA | 1.05
TTGGCTAGTG | 0.968
CTCACCTCGA | 1.01
TCAACAAATA | 0.995
GCGAGGTGTC | 1
AGGGACCGAG | 0.977
AAGGTAAGC | 0.986
GAATCCCCTT | 1.05
TGATGGCTAC | 1.28
TATGTGTAAT | 0.981
ATGCAGTCAC | 0.99
AATCGGTACG | 0.962
CGAGATAGTT | 0.987
CTTAAATGGA | 1
GTGTAGACGC | 0.96

Sequence | switch fluorescence ratio
TAAGTCCGGT | 1.01
CACTCAGTTT | 1.03
TGCATTACCT | 1.23
AGGAATGCCA | 0.988
CGGTACCAGC | 1.05
TTTGCTCGC | 1.03
GCGGTCTAAA | 1
TAATTAAGCG | 1
GATGGGACGG | 1.01
CGTGGCAGCT | 1.02
CGTAAGGATT | 0.975
CCCACGGACT | 1.32
GGGAATTCCC | 0.974
GGAGGTACAA | 1.03
GAAAAGGCAT | 0.992
GTCTAAGATG | 1
TTATTGCCGC | 1
TTAGACTCAG | 1
GACTATCGTG | 1.03
TGCACTAGAT | 1.04
GCAGATATGT | 1.03
TATACGTGCG | 1
CGCGATTTCT | 1.24

Sequence | switch fluorescence ratio
CTGGGTCTCC | 1.01
GCAGACTGGG | 0.978
GACATGGTCA | 0.97
TATCGGCGTA | 0.922
AGGGGGTTC | 0.99
GCGTGATGGG | 1.03
TAAAGCGGAA | 1.02
CGGGTACCTT | 0.998
AGAGTAACAC | 0.959
CTATTCCAAA | 0.992
GCAGAGATTG | 1.02
TCGAAACGAT | 0.992
GGCGGCTGCC | 1.03
AGGACTTGAG | 0.966
GCTGTAACAG | 0.994
GGTTACGGCC | 1.09
ATGCGAGGAG | 1.02
CTACTGGTCT | 1.06
GGCTAGGCGG | 0.983
GGCTTCCC | 2.05
TATCTGGCAT | 1.01
AGCCTGGATC | 1.02
AATGGTACTC | 1.04

Sequence | switch fluorescence ratio
GTTAACCACA | 1.03
CGTGGGAGTC | 0.971
CTCGGTACTG | 1.06
TGTAGGTGGA | 0.964
TAGACGACAG | 0.897
TTCCTCCTAA | 1.65
ACTGCCC | 1.08
ATCAAGTCCA | 0.987
AGGACCGGAG | 1.03
CATGGAGCAC | 1.41
CAAATTACGC | 1.07
CACAAGATGT | 0.987
GGTCCATGAC | 0.96
TTTTGCATGC | 1.03
TTGTGCTTCC | 1.49
GACTTAACTA | 1.05
CCGTTTACAC | 1.44
CAGACATGGG | 0.999
GGTTACTCAG | 1.07
